PMC7409549, “A time-resolved interaction analysis of Bem1 reconstructs the flow of Cdc42 during polar growth” (Life Science Alliance, 2020)
These are yes or no findings as the source states them, for the method shown. In cells and extracts the contact can be indirect. Some binding calls cover weakened binding; strength is not graded here. For part of these data: Where a sequence is shown, tags or fusion partners need not be part of it.

How the values were obtained:
[1] = target: T1, Boi1CCG (S. cerevisiae) (UniProt P38041); experiment: split reporter; SPLIFF as a9, measured at the cell front during bud site assembly and bud growth (PCDII)
T1 sequence: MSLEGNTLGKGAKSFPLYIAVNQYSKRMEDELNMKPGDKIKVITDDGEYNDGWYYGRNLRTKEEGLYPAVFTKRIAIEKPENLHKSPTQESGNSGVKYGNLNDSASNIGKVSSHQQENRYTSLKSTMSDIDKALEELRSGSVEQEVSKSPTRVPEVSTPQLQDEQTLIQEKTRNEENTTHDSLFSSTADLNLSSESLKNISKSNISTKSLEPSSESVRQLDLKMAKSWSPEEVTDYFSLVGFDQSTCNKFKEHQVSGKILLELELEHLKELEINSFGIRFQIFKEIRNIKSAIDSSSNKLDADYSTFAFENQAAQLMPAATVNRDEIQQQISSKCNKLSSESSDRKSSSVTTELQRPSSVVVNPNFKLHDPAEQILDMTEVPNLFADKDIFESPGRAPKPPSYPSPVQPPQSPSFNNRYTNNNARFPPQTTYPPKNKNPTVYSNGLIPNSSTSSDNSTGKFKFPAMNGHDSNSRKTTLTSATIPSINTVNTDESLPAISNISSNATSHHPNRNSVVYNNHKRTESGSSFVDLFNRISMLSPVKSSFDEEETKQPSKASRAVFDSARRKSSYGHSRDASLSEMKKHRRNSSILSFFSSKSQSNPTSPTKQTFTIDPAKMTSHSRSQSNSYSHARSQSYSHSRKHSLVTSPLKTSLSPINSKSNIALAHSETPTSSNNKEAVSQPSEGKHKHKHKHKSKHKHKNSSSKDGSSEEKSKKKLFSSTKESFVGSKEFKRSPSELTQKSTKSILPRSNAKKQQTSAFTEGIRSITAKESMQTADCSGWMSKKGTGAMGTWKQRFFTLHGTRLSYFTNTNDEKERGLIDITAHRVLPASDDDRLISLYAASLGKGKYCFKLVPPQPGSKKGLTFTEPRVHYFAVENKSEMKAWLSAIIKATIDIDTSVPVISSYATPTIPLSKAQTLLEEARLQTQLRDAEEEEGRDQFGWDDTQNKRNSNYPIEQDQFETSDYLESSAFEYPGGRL

[2] = target: T1, Boi1CCG (S. cerevisiae); experiment: split reporter; SPLIFF as a9, measured at the bud neck from completion of acto-myosin ring contraction until abscission (PCDIII)
[3] = target: T2, GST-Bud6_(1-364) (S. cerevisiae) (UniProt P41697); experiment: pull-down; GST fusions immobilised on glutathione sepharose beads from E. coli extracts, incubated 1 h at 4°C with yeast cell extracts; glutathione eluates blotted (anti-GFP or anti-Myc); only the target purified
T2 sequence: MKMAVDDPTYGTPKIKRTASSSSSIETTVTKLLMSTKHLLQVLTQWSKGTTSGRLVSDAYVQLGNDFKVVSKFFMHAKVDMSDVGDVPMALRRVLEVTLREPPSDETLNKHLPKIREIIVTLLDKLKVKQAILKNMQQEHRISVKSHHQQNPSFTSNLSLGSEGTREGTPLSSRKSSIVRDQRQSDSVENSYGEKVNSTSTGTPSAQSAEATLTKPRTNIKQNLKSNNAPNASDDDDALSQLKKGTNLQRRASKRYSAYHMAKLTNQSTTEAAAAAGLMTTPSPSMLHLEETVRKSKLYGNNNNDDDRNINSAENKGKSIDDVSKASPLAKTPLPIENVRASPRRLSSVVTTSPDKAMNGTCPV

[4] = target: T3, Boi2CRU (S. cerevisiae) (UniProt P39969); experiment: split reporter; split-ubiquitin (Split-Ub): CRU and Nub fusions co-expressed in yeast cells, spotted in 10-fold serial dilutions on medium with 1 mg/ml 5-FOA and copper, 30°C; growth = interaction
T3 sequence: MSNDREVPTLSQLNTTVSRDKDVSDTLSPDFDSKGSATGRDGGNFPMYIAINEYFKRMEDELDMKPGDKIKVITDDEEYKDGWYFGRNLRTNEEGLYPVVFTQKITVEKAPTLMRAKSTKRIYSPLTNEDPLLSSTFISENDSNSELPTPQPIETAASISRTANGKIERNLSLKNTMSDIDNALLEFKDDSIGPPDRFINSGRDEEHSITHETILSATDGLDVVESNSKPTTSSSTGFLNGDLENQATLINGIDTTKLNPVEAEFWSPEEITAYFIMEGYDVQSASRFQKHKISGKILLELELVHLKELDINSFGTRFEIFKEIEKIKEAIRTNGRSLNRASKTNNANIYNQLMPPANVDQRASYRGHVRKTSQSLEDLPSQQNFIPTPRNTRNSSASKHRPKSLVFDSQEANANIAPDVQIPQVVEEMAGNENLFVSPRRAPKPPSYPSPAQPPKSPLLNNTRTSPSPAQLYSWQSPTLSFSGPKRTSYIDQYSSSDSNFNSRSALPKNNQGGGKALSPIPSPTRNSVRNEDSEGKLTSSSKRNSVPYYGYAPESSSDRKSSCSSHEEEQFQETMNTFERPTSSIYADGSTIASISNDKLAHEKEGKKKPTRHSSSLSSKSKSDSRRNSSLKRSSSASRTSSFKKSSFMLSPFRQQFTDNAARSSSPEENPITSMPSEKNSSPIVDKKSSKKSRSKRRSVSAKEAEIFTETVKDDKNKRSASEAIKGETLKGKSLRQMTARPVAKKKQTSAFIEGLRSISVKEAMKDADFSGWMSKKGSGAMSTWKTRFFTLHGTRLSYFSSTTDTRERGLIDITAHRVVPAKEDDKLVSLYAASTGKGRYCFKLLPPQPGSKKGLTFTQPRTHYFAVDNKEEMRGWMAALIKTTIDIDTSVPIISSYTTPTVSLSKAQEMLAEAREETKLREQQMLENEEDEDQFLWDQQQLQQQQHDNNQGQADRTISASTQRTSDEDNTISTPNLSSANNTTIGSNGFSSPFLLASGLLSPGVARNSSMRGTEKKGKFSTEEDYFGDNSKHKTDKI

[5] = target: T4, Boi1CRU (S. cerevisiae) (UniProt P38041); experiment: as above
T4 sequence: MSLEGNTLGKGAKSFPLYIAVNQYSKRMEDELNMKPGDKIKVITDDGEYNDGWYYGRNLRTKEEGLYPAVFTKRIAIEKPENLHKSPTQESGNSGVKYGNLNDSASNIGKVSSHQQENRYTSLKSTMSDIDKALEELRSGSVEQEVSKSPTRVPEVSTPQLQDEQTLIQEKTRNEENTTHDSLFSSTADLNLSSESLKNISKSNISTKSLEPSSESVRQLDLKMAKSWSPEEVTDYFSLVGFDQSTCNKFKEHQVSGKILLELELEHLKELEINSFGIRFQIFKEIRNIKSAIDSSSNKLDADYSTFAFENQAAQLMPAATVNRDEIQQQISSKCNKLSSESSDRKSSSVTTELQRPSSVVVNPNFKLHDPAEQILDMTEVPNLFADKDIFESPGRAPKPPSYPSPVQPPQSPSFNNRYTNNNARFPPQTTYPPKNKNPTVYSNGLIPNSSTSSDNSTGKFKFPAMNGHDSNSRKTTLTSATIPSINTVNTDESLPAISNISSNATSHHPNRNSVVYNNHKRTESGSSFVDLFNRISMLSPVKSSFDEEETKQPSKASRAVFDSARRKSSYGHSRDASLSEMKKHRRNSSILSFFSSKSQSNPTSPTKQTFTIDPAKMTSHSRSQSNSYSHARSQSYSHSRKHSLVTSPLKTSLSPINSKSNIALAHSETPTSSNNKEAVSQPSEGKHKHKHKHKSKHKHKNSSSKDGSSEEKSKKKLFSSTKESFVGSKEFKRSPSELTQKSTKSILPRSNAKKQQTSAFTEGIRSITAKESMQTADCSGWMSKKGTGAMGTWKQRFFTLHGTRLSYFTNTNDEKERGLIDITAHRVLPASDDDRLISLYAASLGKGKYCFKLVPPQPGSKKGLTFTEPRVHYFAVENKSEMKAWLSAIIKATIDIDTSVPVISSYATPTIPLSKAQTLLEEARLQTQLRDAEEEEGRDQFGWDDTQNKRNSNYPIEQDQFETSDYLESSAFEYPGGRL

B1: Boi1CCG (protein, UniProt P38041 1-980)
chain: MSLEGNTLGKGAKSFPLYIAVNQYSKRMEDELNMKPGDKIKVITDDGEYNDGWYYGRNLRTKEEGLYPAVFTKRIAIEKPENLHKSPTQESGNSGVKYGNLNDSASNIGKVSSHQQENRYTSLKSTMSDIDKALEELRSGSVEQEVSKSPTRVPEVSTPQLQDEQTLIQEKTRNEENTTHDSLFSSTADLNLSSESLKNISKSNISTKSLEPSSESVRQLDLKMAKSWSPEEVTDYFSLVGFDQSTCNKFKEHQVSGKILLELELEHLKELEINSFGIRFQIFKEIRNIKSAIDSSSNKLDADYSTFAFENQAAQLMPAATVNRDEIQQQISSKCNKLSSESSDRKSSSVTTELQRPSSVVVNPNFKLHDPAEQILDMTEVPNLFADKDIFESPGRAPKPPSYPSPVQPPQSPSFNNRYTNNNARFPPQTTYPPKNKNPTVYSNGLIPNSSTSSDNSTGKFKFPAMNGHDSNSRKTTLTSATIPSINTVNTDESLPAISNISSNATSHHPNRNSVVYNNHKRTESGSSFVDLFNRISMLSPVKSSFDEEETKQPSKASRAVFDSARRKSSYGHSRDASLSEMKKHRRNSSILSFFSSKSQSNPTSPTKQTFTIDPAKMTSHSRSQSNSYSHARSQSYSHSRKHSLVTSPLKTSLSPINSKSNIALAHSETPTSSNNKEAVSQPSEGKHKHKHKHKSKHKHKNSSSKDGSSEEKSKKKLFSSTKESFVGSKEFKRSPSELTQKSTKSILPRSNAKKQQTSAFTEGIRSITAKESMQTADCSGWMSKKGTGAMGTWKQRFFTLHGTRLSYFTNTNDEKERGLIDITAHRVLPASDDDRLISLYAASLGKGKYCFKLVPPQPGSKKGLTFTEPRVHYFAVENKSEMKAWLSAIIKATIDIDTSVPVISSYATPTIPLSKAQTLLEEARLQTQLRDAEEEEGRDQFGWDDTQNKRNSNYPIEQDQFETSDYLESSAFEYPGGRL
- binding [1]: binds
- binding [2]: no binding (condition: during PCDIII (abscission))

B2: Boi1-GFP (protein, UniProt P38041 1-980)
chain: MSLEGNTLGKGAKSFPLYIAVNQYSKRMEDELNMKPGDKIKVITDDGEYNDGWYYGRNLRTKEEGLYPAVFTKRIAIEKPENLHKSPTQESGNSGVKYGNLNDSASNIGKVSSHQQENRYTSLKSTMSDIDKALEELRSGSVEQEVSKSPTRVPEVSTPQLQDEQTLIQEKTRNEENTTHDSLFSSTADLNLSSESLKNISKSNISTKSLEPSSESVRQLDLKMAKSWSPEEVTDYFSLVGFDQSTCNKFKEHQVSGKILLELELEHLKELEINSFGIRFQIFKEIRNIKSAIDSSSNKLDADYSTFAFENQAAQLMPAATVNRDEIQQQISSKCNKLSSESSDRKSSSVTTELQRPSSVVVNPNFKLHDPAEQILDMTEVPNLFADKDIFESPGRAPKPPSYPSPVQPPQSPSFNNRYTNNNARFPPQTTYPPKNKNPTVYSNGLIPNSSTSSDNSTGKFKFPAMNGHDSNSRKTTLTSATIPSINTVNTDESLPAISNISSNATSHHPNRNSVVYNNHKRTESGSSFVDLFNRISMLSPVKSSFDEEETKQPSKASRAVFDSARRKSSYGHSRDASLSEMKKHRRNSSILSFFSSKSQSNPTSPTKQTFTIDPAKMTSHSRSQSNSYSHARSQSYSHSRKHSLVTSPLKTSLSPINSKSNIALAHSETPTSSNNKEAVSQPSEGKHKHKHKHKSKHKHKNSSSKDGSSEEKSKKKLFSSTKESFVGSKEFKRSPSELTQKSTKSILPRSNAKKQQTSAFTEGIRSITAKESMQTADCSGWMSKKGTGAMGTWKQRFFTLHGTRLSYFTNTNDEKERGLIDITAHRVLPASDDDRLISLYAASLGKGKYCFKLVPPQPGSKKGLTFTEPRVHYFAVENKSEMKAWLSAIIKATIDIDTSVPVISSYATPTIPLSKAQTLLEEARLQTQLRDAEEEEGRDQFGWDDTQNKRNSNYPIEQDQFETSDYLESSAFEYPGGRL
- binding [3]: binds

B3: Boi2-GFP (protein, UniProt P39969 1-1040)
chain: MSNDREVPTLSQLNTTVSRDKDVSDTLSPDFDSKGSATGRDGGNFPMYIAINEYFKRMEDELDMKPGDKIKVITDDEEYKDGWYFGRNLRTNEEGLYPVVFTQKITVEKAPTLMRAKSTKRIYSPLTNEDPLLSSTFISENDSNSELPTPQPIETAASISRTANGKIERNLSLKNTMSDIDNALLEFKDDSIGPPDRFINSGRDEEHSITHETILSATDGLDVVESNSKPTTSSSTGFLNGDLENQATLINGIDTTKLNPVEAEFWSPEEITAYFIMEGYDVQSASRFQKHKISGKILLELELVHLKELDINSFGTRFEIFKEIEKIKEAIRTNGRSLNRASKTNNANIYNQLMPPANVDQRASYRGHVRKTSQSLEDLPSQQNFIPTPRNTRNSSASKHRPKSLVFDSQEANANIAPDVQIPQVVEEMAGNENLFVSPRRAPKPPSYPSPAQPPKSPLLNNTRTSPSPAQLYSWQSPTLSFSGPKRTSYIDQYSSSDSNFNSRSALPKNNQGGGKALSPIPSPTRNSVRNEDSEGKLTSSSKRNSVPYYGYAPESSSDRKSSCSSHEEEQFQETMNTFERPTSSIYADGSTIASISNDKLAHEKEGKKKPTRHSSSLSSKSKSDSRRNSSLKRSSSASRTSSFKKSSFMLSPFRQQFTDNAARSSSPEENPITSMPSEKNSSPIVDKKSSKKSRSKRRSVSAKEAEIFTETVKDDKNKRSASEAIKGETLKGKSLRQMTARPVAKKKQTSAFIEGLRSISVKEAMKDADFSGWMSKKGSGAMSTWKTRFFTLHGTRLSYFSSTTDTRERGLIDITAHRVVPAKEDDKLVSLYAASTGKGRYCFKLLPPQPGSKKGLTFTQPRTHYFAVDNKEEMRGWMAALIKTTIDIDTSVPIISSYTTPTVSLSKAQEMLAEAREETKLREQQMLENEEDEDQFLWDQQQLQQQQHDNNQGQADRTISASTQRTSDEDNTISTPNLSSANNTTIGSNGFSSPFLLASGLLSPGVARNSSMRGTEKKGKFSTEEDYFGDNSKHKTDKI
- binding [3]: binds

B4: Nub fusion of a C-terminal fragment of Nba1 (residues 256-501) (domain or fragment, UniProt Q08229 256-501)
chain: TTTNEAPKAINPIRSETNDYNPTIPPRSKDRPRSRLFIEEGDGEGDLLTEEILPTPVQPGGHYKNSSQISTVSEQKSESYYSAATSMPPEEETYLTRPLPSTPNEDSRVTSNLKRDDTLKAIHDRANHTSTSTNKQDDDMYEDIIEETPKKTKLKKDTKKKLNKKKSVKELRSFDIDTLNQLLSVTKGTLIGSEFAQLGMKIEEKRALERLVDSLSRLTADMVLDPDRYEEGLKRLDKATKALEGF
- binding [4]: binds
- binding [5]: binds
